# From the supplement of paper PMC8728848
# This is one part of the list.
# Key:
# Assay in all cases: glycan array binding signal (z-score within array); higher = stronger binding
# Details in all cases: glycan notation: IUPAC condensed, linker removed; mutation: H84T
# Neu5Ac(a2-3)Gal = target: Neu5Ac(a2-3)Gal
# In short: (§1)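 Columns mapping to the same glycan were averaged after glycan names were converted to IUPAC-condensed notation. The data come from 3228 arrays in the Consortium for Functional Glycomics database, limited to those with an available protein sequence. Binding is reported as a within-array Z-score averaged across arrays of one protein sequence and across linkers.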
# [1] = target: Neu5Ac(a2-3)Gal(b1-3)GalNAc
# In short: as §1
# [2] = target: Neu5Ac(a2-3)Gal(b1-3)GalNAc(b1-3)Gal(a1-4)Gal(b1-4)Glc
# In short: as §1
# [3] = target: Neu5Ac(a2-3)Gal(b1-3)GalNAc(b1-4)Gal(b1-4)Glc
# In short: as §1
# [4] = target: Neu5Ac(a2-3)Gal(b1-3)GalNAc(b1-4)[Neu5Ac(a2-3)]Gal(b1-4)Glc
# In short: as §1
# [5] = target: Neu5Ac(a2-3)Gal(b1-3)GalNAc(b1-4)[Neu5Ac(a2-8)Neu5Ac(a2-3)]Gal(b1-4)Glc
# In short: as §1
# [6] = target: Neu5Ac(a2-3)Gal(b1-3)GalNAc6S
# In short: as §1
# [7] = target: Neu5Ac(a2-3)Gal(b1-3)GlcNAc
# In short: as §1
# [8] = target: Neu5Ac(a2-3)Gal(b1-3)GlcNAc(b1-2)Man
# In short: as §1
# [9] = target: Neu5Ac(a2-3)Gal(b1-3)GlcNAc(b1-2)Man(a1-3)[GlcNAc(b1-4)][Neu5Ac(a2-3)Gal(b1-3)GlcNAc(b1-2)Man(a1-6)]Man(b1-4)GlcNAc(b1-4)GlcNAc
# In short: as §1
# [10] = target: Neu5Ac(a2-3)Gal(b1-3)GlcNAc(b1-2)Man(a1-3)[Neu5Ac(a2-3)Gal(b1-3)GlcNAc(b1-2)Man(a1-6)]Man(b1-4)GlcNAc(b1-4)GlcNAc
# In short: as §1
# [11] = target: Neu5Ac(a2-3)Gal(b1-3)GlcNAc(b1-2)[Neu5Ac(a2-3)Gal(b1-3)GlcNAc(b1-4)]Man(a1-6)[Neu5Ac(a2-3)Gal(b1-3)GlcNAc(b1-2)Man(a1-3)]Man(b1-4)GlcNAc(b1-4)GlcNAc
# In short: as §1
# [12] = target: Neu5Ac(a2-3)Gal(b1-3)GlcNAc(b1-3)Gal(b1-3)GlcNAc
# In short: as §1
# [13] = target: Neu5Ac(a2-3)Gal(b1-3)GlcNAc(b1-3)Gal(b1-4)GlcNAc
# In short: as §1
# [14] = target: Neu5Ac(a2-3)Gal(b1-3)GlcNAc(b1-3)GalNAc
# In short: as §1
# [15] = target: Neu5Ac(a2-3)Gal(b1-3)GlcNAc(b1-6)GalNAc
# In short: as §1
# [16] = target: Neu5Ac(a2-3)Gal(b1-3)GlcNAc6S
# In short: as §1
# [17] = target: Neu5Ac(a2-3)Gal(b1-3)[Fuc(a1-4)]GlcNAc
# In short: as §1
# [18] = target: Neu5Ac(a2-3)Gal(b1-3)[Fuc(a1-4)]GlcNAc(b1-3)Gal(b1-3)[Fuc(a1-4)]GlcNAc
# In short: as §1
# [19] = target: Neu5Ac(a2-3)Gal(b1-3)[Fuc(a1-4)]GlcNAc(b1-3)Gal(b1-4)[Fuc(a1-3)]GlcNAc
# In short: as §1
# [20] = target: Neu5Ac(a2-3)Gal(b1-3)[GlcNAc(b1-6)]GalNAc
# In short: as §1
# [21] = target: Neu5Ac(a2-3)Gal(b1-3)[Neu5Ac(a2-6)]GalNAc
# In short: as §1
# [22] = target: Neu5Ac(a2-3)Gal(b1-3)[Neu5Ac(a2-6)]GlcNAc(b1-3)[Fuc(a1-3)[Gal(b1-4)]GlcNAc(b1-6)]Gal(b1-4)Glc
# In short: as §1
# [23] = target: Neu5Ac(a2-3)Gal(b1-3)]Neu5Ac(a2-3)Gal(b1-4)]GlcNAc
# In short: as §1
# Neu5Ac(a2-3)Gal(b1-4)Glc = target: Neu5Ac(a2-3)Gal(b1-4)Glc
# In short: as §1
# [24] = target: Neu5Ac(a2-3)Gal(b1-4)GlcNAc
# In short: as §1
# [25] = target: Neu5Ac(a2-3)Gal(b1-4)GlcNAc(b1-2)Man
# In short: as §1
# [26] = target: Neu5Ac(a2-3)Gal(b1-4)GlcNAc(b1-2)Man(a1-3)[GlcNAc(b1-4)][Neu5Ac(a2-3)Gal(b1-4)GlcNAc(b1-2)Man(a1-6)]Man(b1-4)GlcNAc(b1-4)GlcNAc
# In short: as §1
# [27] = target: Neu5Ac(a2-3)Gal(b1-4)GlcNAc(b1-2)Man(a1-3)[Neu5Ac(a2-3)Gal(b1-4)GlcNAc(b1-2)Man(a1-6)]Man(b1-4)GlcNAc(b1-4)GlcNAc
# In short: as §1
# [28] = target: Neu5Ac(a2-3)Gal(b1-4)GlcNAc(b1-2)Man(a1-3)[Neu5Ac(a2-3)Gal(b1-4)GlcNAc(b1-2)Man(a1-6)]Man(b1-4)GlcNAc(b1-4)[Fuc(a1-6)]GlcNAc
# In short: as §1
# [29] = target: Neu5Ac(a2-3)Gal(b1-4)GlcNAc(b1-2)Man(a1-3)[Neu5Ac(a2-6)Gal(b1-4)GlcNAc(b1-2)Man(a1-6)]Man(b1-4)GlcNAc(b1-4)GlcNAc
# In short: as §1
# [30] = target: Neu5Ac(a2-3)Gal(b1-4)GlcNAc(b1-2)[Neu5Ac(a2-3)Gal(b1-4)GlcNAc(b1-4)]Man(a1-3)[GlcNAc(b1-4)][Neu5Ac(a2-3)Gal(b1-4)GlcNAc(b1-2)[Neu5Ac(a2-3)Gal(b1-4)GlcNAc(b1-6)]Man(a1-6)]Man(b1-4)GlcNAc(b1-4)GlcNAc
# In short: as §1
# [31] = target: Neu5Ac(a2-3)Gal(b1-4)GlcNAc(b1-2)[Neu5Ac(a2-3)Gal(b1-4)GlcNAc(b1-4)]Man(a1-3)[GlcNAc(b1-4)][Neu5Ac(a2-3)Gal(b1-4)GlcNAc(b1-4)Man(a1-6)]Man(b1-4)GlcNAc(b1-4)GlcNAc
# In short: as §1
# [32] = target: Neu5Ac(a2-3)Gal(b1-4)GlcNAc(b1-2)[Neu5Ac(a2-3)Gal(b1-4)GlcNAc(b1-6)]Man(a1-6)[Neu5Ac(a2-3)Gal(b1-4)GlcNAc(b1-2)Man(a1-3)][GlcNAc(b1-4)]Man(b1-4)GlcNAc(b1-4)GlcNAc
# In short: as §1
# [33] = target: Neu5Ac(a2-3)Gal(b1-4)GlcNAc(b1-3)Gal
# In short: as §1
# [34] = target: Neu5Ac(a2-3)Gal(b1-4)GlcNAc(b1-3)Gal(b1-3)GlcNAc
# In short: as §1
# [35] = target: Neu5Ac(a2-3)Gal(b1-4)GlcNAc(b1-3)Gal(b1-4)GlcNAc
# In short: as §1
# [36] = target: Neu5Ac(a2-3)Gal(b1-4)GlcNAc(b1-3)Gal(b1-4)GlcNAc(b1-2)Man(a1-3)[Neu5Ac(a2-3)Gal(b1-4)GlcNAc(b1-3)Gal(b1-4)GlcNAc(b1-2)Man(a1-6)]Man(b1-4)GlcNAc(b1-4)GlcNAc
# In short: as §1
# [37] = target: Neu5Ac(a2-3)Gal(b1-4)GlcNAc(b1-3)Gal(b1-4)GlcNAc(b1-3)Gal(b1-4)GlcNAc
# In short: as §1
# [38] = target: Neu5Ac(a2-3)Gal(b1-4)GlcNAc(b1-3)Gal(b1-4)GlcNAc(b1-3)Gal(b1-4)GlcNAc(b1-2)Man(a1-3)[Neu5Ac(a2-3)Gal(b1-4)GlcNAc(b1-3)Gal(b1-4)GlcNAc(b1-3)Gal(b1-4)GlcNAc(b1-2)Man(a1-6)]GalNAc
# In short: as §1
# [39] = target: Neu5Ac(a2-3)Gal(b1-4)GlcNAc(b1-3)Gal(b1-4)GlcNAc(b1-3)GalNAc
# In short: as §1
# [40] = target: Neu5Ac(a2-3)Gal(b1-4)GlcNAc(b1-3)Gal(b1-4)GlcNAc(b1-3)[Neu5Ac(a2-3)Gal(b1-4)GlcNAc(b1-3)Gal(b1-4)GlcNAc(b1-6)]GalNAc
# In short: as §1
# [41] = target: Neu5Ac(a2-3)Gal(b1-4)GlcNAc(b1-3)Gal(b1-4)GlcNAc(b1-6)[Gal(b1-3)]GalNAc
# In short: as §1
# [42] = target: Neu5Ac(a2-3)Gal(b1-4)GlcNAc(b1-3)Gal(b1-4)[Fuc(a1-3)]GlcNAc
# In short: as §1
# [43] = target: Neu5Ac(a2-3)Gal(b1-4)GlcNAc(b1-3)GalNAc
# In short: as §1
binder,measurement,setting,value
Banana lectin (Musa acuminata) (protein) MNGAIKVGAWGGNGGSAFDMGPAYRIISVKIFSGDVVDGVDVTFTYYGKTETRHYGGSGGTPHEIVLQEGEYLVGMAGEVANYTGAVVLGKLGFSTNKKAYGPFGNTGGTPFSLPIAAGKISGFFGRGGKFLDAIGVYLEPLEHHHHHH,glycan array binding signal (z-score),Neu5Ac(a2-3)Gal,-0.212
same,glycan array binding signal (z-score),[1],-0.193
same,glycan array binding signal (z-score),[2],-0.151
same,glycan array binding signal (z-score),[3],-0.131
same,glycan array binding signal (z-score),[4],-0.192
same,glycan array binding signal (z-score),[5],-0.184
same,glycan array binding signal (z-score),[6],-0.156
same,glycan array binding signal (z-score),[7],-0.161
same,glycan array binding signal (z-score),[8],-0.207
same,glycan array binding signal (z-score),[9],-0.154
same,glycan array binding signal (z-score),[10],-0.212
same,glycan array binding signal (z-score),[11],0.018
same,glycan array binding signal (z-score),[12],-0.183
same,glycan array binding signal (z-score),[13],-0.183
same,glycan array binding signal (z-score),[14],-0.181
same,glycan array binding signal (z-score),[15],-0.203
same,glycan array binding signal (z-score),[16],-0.151
same,glycan array binding signal (z-score),[17],-0.13
same,glycan array binding signal (z-score),[18],-0.084
same,glycan array binding signal (z-score),[19],-0.047
same,glycan array binding signal (z-score),[20],-0.189
same,glycan array binding signal (z-score),[21],-0.185
same,glycan array binding signal (z-score),[22],-0.182
same,glycan array binding signal (z-score),[23],-0.179
same,glycan array binding signal (z-score),Neu5Ac(a2-3)Gal(b1-4)Glc,-0.168
same,glycan array binding signal (z-score),[24],-0.185
same,glycan array binding signal (z-score),[25],-0.188
same,glycan array binding signal (z-score),[26],-0.167
same,glycan array binding signal (z-score),[27],-0.182
same,glycan array binding signal (z-score),[28],-0.163
same,glycan array binding signal (z-score),[29],-0.181
same,glycan array binding signal (z-score),[30],-0.098
same,glycan array binding signal (z-score),[31],-0.199
same,glycan array binding signal (z-score),[32],-0.182
same,glycan array binding signal (z-score),[33],-0.163
same,glycan array binding signal (z-score),[34],-0.175
same,glycan array binding signal (z-score),[35],-0.193
same,glycan array binding signal (z-score),[36],-0.083
same,glycan array binding signal (z-score),[37],-0.194
same,glycan array binding signal (z-score),[38],-0.071
same,glycan array binding signal (z-score),[39],-0.181
same,glycan array binding signal (z-score),[40],-0.109
same,glycan array binding signal (z-score),[41],-0.179
same,glycan array binding signal (z-score),[42],-0.179
same,glycan array binding signal (z-score),[43],-0.194
